About 16,000 (4.4%) of roughly 360,000 compounds were called active. This list was built around the results that the source calls inconclusive (neither active nor inactive); the mix of calls is not that of the screen. Calls come from the whole dose curve; as a rule, active = well fitted inhibition curve with a large enough effect; inconclusive = small, poorly fitted or top-dose-only effect; inactive = no such curve, though single readings can be large or run the other way. A potency beside an inconclusive call is a rough fit, not a confirmed value.
Each compound was assayed against Bromodomain adjacent to zinc finger domain protein 2B (Homo sapiens) (UniProt Q9UIF8) (assay: qHTS Assay for Inhibitors of BAZ2B). Settings: AlphaScreen BAZ2B-H3K14Ac peptide displacement; series mostly up to 114 µM.
Outline: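 BAZ2B 50 nM plus b-H3(5-23)K14Ac 50 nM, PBS pH 7.4/0.01% Tween-20, 30 min RT; compound added (max 110 uM), 30 min RT; streptavidin donor/Ni-chelate acceptor beads 10 ug/mL final, 20 min dark; AlphaScreen read.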
Note: nearly all actives have a fitted effect of over 60% in size.
Potency is the fitted concentration of half-maximal effect; tags give direction and shape of the fitted curve.

UniProt Q9UIF8, sequence (Q9UIF8 whole entry, looked up, the tested form may be a part): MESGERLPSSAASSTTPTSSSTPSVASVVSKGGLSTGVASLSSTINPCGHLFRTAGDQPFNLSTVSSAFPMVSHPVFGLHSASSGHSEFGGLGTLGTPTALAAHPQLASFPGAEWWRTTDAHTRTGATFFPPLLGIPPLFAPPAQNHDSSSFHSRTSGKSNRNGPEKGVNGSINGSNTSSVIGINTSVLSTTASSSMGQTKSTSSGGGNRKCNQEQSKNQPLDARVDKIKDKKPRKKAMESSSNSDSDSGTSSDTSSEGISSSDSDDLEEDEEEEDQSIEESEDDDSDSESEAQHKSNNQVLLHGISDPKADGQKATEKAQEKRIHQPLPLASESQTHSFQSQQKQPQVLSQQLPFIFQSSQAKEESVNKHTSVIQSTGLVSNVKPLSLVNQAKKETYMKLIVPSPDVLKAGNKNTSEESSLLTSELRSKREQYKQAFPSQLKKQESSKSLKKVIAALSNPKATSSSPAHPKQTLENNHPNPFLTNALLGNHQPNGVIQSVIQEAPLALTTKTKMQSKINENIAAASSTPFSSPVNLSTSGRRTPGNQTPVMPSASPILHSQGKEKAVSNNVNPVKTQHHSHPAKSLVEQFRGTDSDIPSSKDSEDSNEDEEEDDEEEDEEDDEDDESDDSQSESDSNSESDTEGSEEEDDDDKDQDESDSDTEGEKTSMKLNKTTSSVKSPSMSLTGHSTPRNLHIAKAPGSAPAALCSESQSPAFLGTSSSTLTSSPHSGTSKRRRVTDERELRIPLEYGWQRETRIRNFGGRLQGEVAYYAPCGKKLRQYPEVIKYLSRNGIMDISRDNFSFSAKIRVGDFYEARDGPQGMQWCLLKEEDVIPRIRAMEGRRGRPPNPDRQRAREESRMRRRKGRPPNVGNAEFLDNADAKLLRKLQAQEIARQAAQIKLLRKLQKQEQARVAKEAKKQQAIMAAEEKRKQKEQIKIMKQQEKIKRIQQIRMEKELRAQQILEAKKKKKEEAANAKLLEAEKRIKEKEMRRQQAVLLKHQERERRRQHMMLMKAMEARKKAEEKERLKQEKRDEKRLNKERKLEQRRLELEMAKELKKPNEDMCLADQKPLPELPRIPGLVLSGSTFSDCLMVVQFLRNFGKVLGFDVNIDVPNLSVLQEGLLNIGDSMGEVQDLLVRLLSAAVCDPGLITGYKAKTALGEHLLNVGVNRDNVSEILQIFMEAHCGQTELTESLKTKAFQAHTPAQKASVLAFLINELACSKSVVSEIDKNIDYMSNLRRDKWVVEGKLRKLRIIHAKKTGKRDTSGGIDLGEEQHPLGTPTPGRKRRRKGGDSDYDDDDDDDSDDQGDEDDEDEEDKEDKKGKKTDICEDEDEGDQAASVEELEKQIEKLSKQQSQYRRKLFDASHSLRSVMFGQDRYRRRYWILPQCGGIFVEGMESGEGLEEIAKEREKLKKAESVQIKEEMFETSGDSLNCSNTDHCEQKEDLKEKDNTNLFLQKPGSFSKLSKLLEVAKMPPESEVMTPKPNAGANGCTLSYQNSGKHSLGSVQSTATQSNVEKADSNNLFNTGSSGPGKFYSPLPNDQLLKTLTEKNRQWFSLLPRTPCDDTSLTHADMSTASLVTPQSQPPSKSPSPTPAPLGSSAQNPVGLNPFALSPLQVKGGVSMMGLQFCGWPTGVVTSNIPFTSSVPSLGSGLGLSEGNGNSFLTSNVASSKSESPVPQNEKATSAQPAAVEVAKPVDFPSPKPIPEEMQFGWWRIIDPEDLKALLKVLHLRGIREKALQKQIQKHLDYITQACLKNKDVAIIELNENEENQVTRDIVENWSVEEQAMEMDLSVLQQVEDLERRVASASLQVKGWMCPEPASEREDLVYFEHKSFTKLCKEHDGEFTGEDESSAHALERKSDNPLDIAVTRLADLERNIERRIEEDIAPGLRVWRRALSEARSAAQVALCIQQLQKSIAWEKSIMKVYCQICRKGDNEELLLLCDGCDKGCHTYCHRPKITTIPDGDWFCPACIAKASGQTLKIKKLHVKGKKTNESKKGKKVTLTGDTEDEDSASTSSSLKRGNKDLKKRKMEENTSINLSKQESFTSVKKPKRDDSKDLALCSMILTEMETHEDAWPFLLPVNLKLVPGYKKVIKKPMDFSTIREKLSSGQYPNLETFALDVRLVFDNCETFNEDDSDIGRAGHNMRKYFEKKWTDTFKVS

SMILES | Potency
CCn1c(CNc2ccc(F)cc2)nnc1SCC(=O)N1CCCc2ccccc21 | inconclusive: 79.4 µM [inhibitor, single point]
CN(CCCCCCN(C)Cc1ccccc1O)Cc1ccccc1O | active: 50.1 µM
CCC(=O)Nc1ccc(S(=O)(=O)Nc2ccc(Cl)nn2)cc1 | inconclusive: 89.1 µM [inhibitor, single point]
Cc1ccc(CNC(=O)Nc2ccccc2)n1C | inconclusive: 79.4 µM [inhibitor, single point]
COc1ccc(-n2cc(C(=O)N(C)c3cc(C)ccc3OC)c3ccccc3c2=O)cc1 | inconclusive: 39.8 µM [inhibitor, partial curve]
CN(C)c1ccc(N/C=C/C(=O)c2ccco2)cc1 | active: 35.5 µM
NS(=O)(=O)c1cccc(NC(=O)CN2CCc3ccccc32)c1 | inconclusive: 89.1 µM [inhibitor, single point]
COc1ccc(C)cc1NS(=O)(=O)c1c(C)nc2sc(C)cn2c1=O | inconclusive: 89.1 µM [inhibitor, single point]
OCCn1nc2c3ccccc3nc-2n(-c2ccccc2)c1=S | inactive
Cc1ccc(NC2=C(NC(=O)c3ccccc3)C(=O)c3ccccc3C2=O)cc1Cl | active: 14.1 µM
CC(=O)c1cccc2c(O)c(C3=Nc4ccccc4C3=O)[nH]c12 | active: 25.1 µM
CCc1ccc(/C=N/NC(=O)Cc2cccn2C)cc1 | inconclusive: 79.4 µM [inhibitor, single point]
CCc1noc(C)c1C(=O)N1CCC(CCC(=O)Nc2cccc(C)c2)CC1 | inactive
CC(=O)Nc1ccc(NC(=O)c2ccc(CN3CCc4ccccc4C3)cc2)cc1 | inactive
Cc1ccc(-c2csc3nc(SCC(=O)Nc4ccc(Cl)c(C(=O)O)c4)[nH]c(=O)c23)cc1 | inconclusive: 39.8 µM [inhibitor, single point]
Cc1ccc(S(=O)(=O)c2cc3ccccc3oc2=Nc2ccc3c(c2)OCCO3)cc1 | inconclusive: 7.94 µM [inhibitor, full curve, poor fit]
O=C(/C=C/c1ccc(Cl)cc1)Nc1nccs1 | inactive
CC(=O)Nc1ccc(N/C(=N\S(=O)(=O)c2ccccc2)c2ccccc2)cc1 | inactive
CN(C(=O)COC(=O)COc1ccc2ccccc2c1)c1c(N)n(Cc2ccccc2)c(=O)[nH]c1=O | inactive
C/C=C/c1ccc(OCCCCNCc2ccco2)c(OC)c1 | active: 39.8 µM
OCCN(Cc1ccccc1)Cc1cccc(C(F)(F)F)c1 | inconclusive: 89.1 µM [inhibitor, single point]
Cc1ccc(C2(C)NC(=O)N(CC(=O)Nc3ccccc3N3CCCC3)C2=O)cc1 (centres undefined) | active: 50.1 µM
COc1ccc(-c2cccc(NC(=O)c3ccco3)c2)nn1 | inactive
c1ccc(-c2csc3ncnc(NCc4ccccn4)c23)cc1 | inconclusive: 89.1 µM [inhibitor, single point]
Cc1ccc(S(=O)(=O)N=Nc2c(O)[nH]c3ccccc23)cc1 | inconclusive: 89.1 µM [inhibitor, single point]
Cc1sc(-c2ccncc2)nc1OC(=O)c1ccc(Cl)cc1 | inconclusive: 79.4 µM [inhibitor, single point]
CCN1C(=O)C2(c3ccccc31)c1c(oc3ccc(C)cc3c1=O)C(=O)N2CCCOC(C)C (centres undefined) | inactive

SMILES | Potency
Cc1cc2ccccc2n1CCNC(=O)c1ccc(F)cc1 | inactive
CCn1nc(C)c(CNC(=O)c2ccc(OC3CCN(Cc4ccccn4)CC3)cc2)c1C | active: 79.4 µM
CCC(C)(C)n1nnnc1C(c1cc2ccc(C)cc2[nH]c1=O)N(Cc1cccnc1)Cc1ccco1 (centres undefined) | inconclusive: 79.4 µM [inhibitor, single point]
Cc1ccc(-n2c(C)nn(Cc3ccc([N+](=O)[O-])cc3)c2=O)cc1 | inconclusive: 79.4 µM [inhibitor, single point]
O=C(O)CCCCCNc1nc(=S)[nH]c2ccccc12 | inconclusive: 79.4 µM [inhibitor, single point]
CC1(C)OC(=O)C(=CNNc2c(Cl)cc(Cl)cc2Cl)C(=O)O1 | inactive
COc1ccc2c(Sc3ccccc3)c(C(=O)NCC(C)c3ccccc3)[nH]c2c1 (centres undefined) | inactive
COc1cc(S(=O)(=O)N2CCN(C(=O)c3ccco3)CC2)c(OC)cc1C | inactive
CC(C)Oc1ccc(-c2cc(C(=O)NCCN3CCOCC3)c3ccccc3n2)cc1 | inconclusive: 89.1 µM [inhibitor, single point]
Cc1ccccc1CN1CCN(S(C)(=O)=O)CC1 | inactive
Cc1nc2ccccc2n1CCc1nc2c3ccccc3nc(SCC(=O)Nc3cccc(C(F)(F)F)c3)n2n1 | inactive
COc1ccc(C2/C(=C(/O)c3ccc(Br)cc3)C(=O)C(=O)N2C)cc1 (centres undefined) | inactive
CCc1ccc2ncc(S(=O)(=O)c3ccc(Cl)cc3)c(N3CCN(CC)CC3)c2c1 | inconclusive: 56.2 µM [inhibitor, partial curve]
C=CCc1cc(OC)ccc1OCCN1CC(C)OC(C)C1 (centres undefined) | active: 28.2 µM
O=C(Cc1nc2ccccc2[nH]1)c1cccc([N+](=O)[O-])c1 | inconclusive: 79.4 µM [inhibitor, partial curve]
OC(COc1ccc2c(c1)OCO2)CN1CCc2ccccc2C1 (centres undefined) | inconclusive: 70.8 µM [inhibitor, single point]
O=C(CNc1ccccc1)N/N=C/c1cc([N+](=O)[O-])ccc1N1CCCC1 | inconclusive: 89.1 µM [inhibitor, single point]
O=C(CSc1nc2ccccc2[nH]1)NCC1CCCO1 (centres undefined) | inactive
O=C(NC1(O)C(=O)c2ccccc2C1=O)c1ccc(C(F)(F)F)cc1 | inactive
CC1CCc2nc3ncn(Cc4ccc(Cl)cc4)c(=O)c3cc2C1 (centres undefined) | inactive
CSCC[C@H](NC(=O)COc1cc2c(c3oc(=O)c(C)c(C)c13)CCC(C)(C)O2)C(=O)O | inactive
CCC(=O)N1CCc2cc(CNS(=O)(=O)c3c(C)cc(C)cc3C)ccc21 | inactive
CCOC(=O)c1[nH]cnc1C(=O)O | active: 20 µM
CSc1nccc(NC(=O)c2cccc(Br)c2)n1 | inactive
COc1ccc(S(=O)(=O)N2CCOCC2)cc1NC(=O)CN1C(=O)NC2(CCCC2)C1=O | inactive
COCCNC(=O)COC(=O)c1[nH]c(C)c(C(C)=O)c1C | inconclusive: 100 µM [inhibitor, single point]
CCOC(=O)c1cnc2c(OC)cccc2c1N1CCN(c2ccccc2OC)CC1 | inconclusive: 70.8 µM [inhibitor, single point]

SMILES | Potency
NC(=S)N=Nc1c(O)n(CCCl)c2ccc(Br)cc12 | inconclusive: 79.4 µM [inhibitor, single point]
COc1cccc(/C=C2\C(=O)N(c3cccc(C)c3)C(=O)c3ccccc32)c1 | inconclusive: 50.1 µM [inhibitor, partial curve]
COc1cc(NC(=O)c2ccco2)c(OC)cc1NC(=O)CSc1nnc(-c2cccs2)n1C | inactive
O=C(N/N=C/c1ccco1)c1ccc(NC(=O)c2ccc(Cl)cc2)cc1 | inactive
CCOC(=O)c1ccc(NC(=O)c2cnn(-c3ccc(C)cc3C)c2C2CCN(C(=O)OC(C)(C)C)CC2)cc1 | inactive
CCCC(=O)NC(c1ccc(C)cc1)c1ccc2cccnc2c1O (centres undefined) | active: 14.1 µM
CCCC(CCC)C(=O)Nc1cccc(-c2nc3cccnc3s2)c1C | inconclusive: 7.08 µM [inhibitor, full curve]
COc1cccc(-c2nc(CS(=O)(=O)CC(=O)NCCc3ccc(OC)cc3OC)c(C)o2)c1 | inconclusive: 7.08 µM [inhibitor, full curve]
CSc1ccc(OC2CCCCC2NS(=O)(=O)c2ccccc2)cc1 (centres undefined) | inactive
Cc1ccc(NC(=O)c2noc3c2CCC3)cc1C | active: 44.7 µM
O=C(Nc1ccc(F)cc1)Nc1cc(S(=O)(=O)N2CCOCC2)ccc1N1CCCC1 | inconclusive: 70.8 µM [inhibitor, partial curve]
Cn1c(=O)oc2cc(S(=O)(=O)Nc3ccc4c(c3)OCO4)ccc21 | inconclusive: 89.1 µM [inhibitor, single point]
CCOC(=O)c1scc(-c2ccccc2)c1S(=O)(=O)Nc1ccc(N(C)C)cc1 | active: 20 µM
CC(=O)Nc1cccc(NC(C)=O)n1 | inactive
Cc1cccn2c(=O)c3cc(C#N)c(=NC(=O)c4ccco4)n(Cc4ccco4)c3nc12 | inconclusive: 79.4 µM [inhibitor, single point]
CC(=O)c1ccc(NC(=O)C[n+]2cccc(C)c2)cc1 | inactive
CCCC(C)NC(=O)c1c2c(nc3ccccc13)CCC2 (centres undefined) | active: 50.1 µM
O=C(CSc1ccsc1[N+](=O)[O-])Nc1cc(F)ccc1F | active: 20 µM
CCc1nnc(SCc2cccc(F)c2)c2cc3sc(C)cc3n12 | inactive
C=CCc1cc(OC)ccc1OCCCCn1cncn1 | active: 50.1 µM
c1ccc(OCc2nn3c(-c4ccccn4)nnc3s2)cc1 | inactive
O=C(COc1ccc2ccccc2c1)N1CCN(C(=O)c2ccc([N+](=O)[O-])cc2)CC1 | inconclusive: 79.4 µM [inhibitor, single point]
COc1cc(OC)c(NC(=O)C(c2ccccc2)N2Cc3ccccc3C2=O)cc1Cl (centres undefined) | inconclusive: 70.8 µM [inhibitor, single point]
CCN(C/C=C/c1ccccc1OC)Cc1ccccc1 | inconclusive: 89.1 µM [inhibitor, single point]
O=S(=O)(Nc1nc2ccccc2nc1Nc1ccc(N2CCOCC2)cc1)c1cc(Cl)ccc1Cl | inactive

Source: PubChem BioAssay AID504333 (National Center for Advancing Translational Sciences (NCATS), 2011)
